These results are taken from publication PMC2957522 (Journal of molecular biology, 2010).

In the test the target is rabbit skeletal muscle actin (monomeric, Mg-εATP-actin) (rabbit, UniProt P68135). Briefly: actin nucleotide exchange kinetics.

B1: human cofilin (natural protein)
chain: not shown
modifications: paralogue not given; cofilin-1 (CFL1, non-muscle) taken as the likeliest
What is called Kd is the concentration at which binding is half-saturated. Read a high Kd as a looser complex. Take B1: the Kd is 1700 ± 300 nM.
